This note sets out measurements from PubChem BioAssay AID1508623 (National Center for Advancing Translational Sciences (NCATS), 2021).

Each structure is given as a SMILES string. Among all 48,000 compounds or so, about 450 (0.94%) were called active. Inconclusive results (about 19%) are left out. Calls follow the shape of the dose curve; as a rule, active = well fitted inhibition curve with a large enough effect; inconclusive = small, poorly fitted or top-dose-only effect; inactive = no such curve, though single readings can be large or run the other way. Some of the results follow.

The assay in a line: Primary qHTS for Identification of Small Molecule Inhibitors of Huntingtin Promoter Activity. Also: nearly all actives have a fitted effect of over 50% in size. The settings on record: HEK293 HTT promoter firefly luciferase reporter (activity 0% = vehicle and -100% = no light), 24 h; series mostly up to 57.5 µM; activity change, negative = inhibition: at the top concentration. In outline: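 HEK293 cells carrying firefly luciferase reporters were seeded at 2,500 per well in Opti-MEM and cultured for 24 h. They were then treated with compounds at up to 57.5 uM final for 24 h at 37 degrees C before Dual-Glo luminescence readout.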
Regarding `O=C(Nc1ccc(S(=O)(=O)N2CCOCC2)cc1)c1cc(Cl)ccc1NS(=O)(=O)c1ccc(Cl)s1`, the “activity change, negative = inhibition” value is inactive: -4.72%.
In the case of `N[C@@H](Cc1cc(I)c(O)c(I)c1)C(=O)O` it was inactive: 0.296%; in that of `O=C(CSc1nc2c(c(=O)[nH]1)CCCC2)Nc1ccccc1C(F)(F)F`, inactive: -25.7%.
Under `CC(C)c1ccc(S(=O)(=O)c2cn(CC(=O)Nc3ccc(F)cc3)c3ccccc3c2=O)cc1` stands inactive: -19.7%; under `CCc1ccccc1NC(=O)Cn1c(=O)n(Cc2ccccc2)c(=O)c2c(C)c(C(=O)N(C)C)sc21`, inactive: -9.76%; under `CCOc1ccc(NC(=O)Cn2c(=O)cc(C)c3c(C)nn(C)c32)cc1`, inactive: -24.1%.
Under `Cc1csc2nc(-c3cccc(NS(C)(=O)=O)c3)cn12` stands inactive: 15.1%.
With `Cc1ccccc1CN1c2ccccc2-c2nc(SCC(=O)c3ccc(Cl)cc3)ncc2S1(=O)=O`, the “activity change, negative = inhibition” value is inactive: -14%.
In the case of `COCCCNC(=O)CCCN1C(=O)CCn2nc(-c3cccn3C)cc21` it was inactive: 8.8%; in that of `Cc1ccc(-c2nc(C)c(CCNC(=O)C(=O)Nc3cc(C)ccc3C)s2)cc1`, inactive: 5.94%; in that of `Cc1csc2nc(-c3ccc(NS(=O)(=O)c4cccc(F)c4)cc3)cn12`, inactive: -15.5%.
Under `Cc1ccc(-c2n[nH]c3c2C(c2ccccc2Cl)N(c2ccc(C(=O)O)cc2)C3=O)cc1` (configuration not stated) stands inactive: -28.3%; under `CCCOc1ccc(C2=NC(c3ccncc3)=Nc3ccc(C)cc3N2)cc1`, inactive: -24.6%.
Turning to `Cc1oc2ccc(NS(=O)(=O)c3ccc(F)cc3)cc2c1C(=O)O`, the “activity change, negative = inhibition” value is inactive: -4.52%.
Under `CSc1ncc(Cl)c(C(=O)Nc2c(C(=O)Nc3cccc(C)c3)oc3ccccc23)n1` stands inactive: -8.01%.
Under `Cc1ccccc1-c1noc(-c2ccc(N3CCC(C)CC3)c([N+](=O)[O-])c2)n1` stands inactive: -2.86%; under `O=C(Nc1c(C(=O)c2ccccc2)oc2ccccc12)c1ccc(F)cc1`, inactive: -1.15%.
Consider `CC(C)c1nc2ccc(C(=O)NCCCN3CCN(c4ccccc4)CC3)cc2o1`, for which the “activity change, negative = inhibition” value is inactive: -28.2%.
In the case of `O=C(CN1CCN(Cc2ccc(F)cc2Cl)C1=O)NCCc1ccc(Cl)cc1` it was inactive: -11.3%.
In the case of `CCOc1ccc(C(=O)Nc2ccc3oc(-c4cccc5ccccc45)nc3c2)cc1` it was inactive: -13.2%; in that of `COc1ccc(OC)c(NC(=O)N2CC(C)Oc3ccc(C)cc32)c1` (configuration not stated), inactive: -16.5%; in that of `Cc1ccc(C(=O)c2cn(CC(=O)NCc3ccccc3)c3nc(C)ccc3c2=O)cc1`, inactive: 17.5%.
Under `Cc1cc(C)n(CC(=O)Nc2cc(F)ccc2F)c(=O)c1C#N` stands inactive: -9.34%; under `COc1ccc(CCN(C)CCCOc2ccc(S(=O)(=O)c3[nH]c4ccccc4c3C(C)C)cc2)cc1OC`, inactive: 7.76%.
Take `COc1cccc(C(=O)Nc2ccc3nc4n(c(=O)c3c2)CCCCC4)c1`: the “activity change, negative = inhibition” value is inactive: 26.8%.
`Cc1ccc(O)c(Nc2nc3ccccc3c3nncn23)c1`: the “activity change, negative = inhibition” value is inactive: -15.3%.
Under `CCOc1ccc(-c2nc(C(N)=O)c3c(n2)n(-c2ccc4c(c2)OCO4)c(=O)n3CC)cc1` stands inactive: -7.28%; under `CC1CNc2c(cccc2S(=O)(=O)N[C@@H](CCCN=C(N)N)C(=O)N2CC[C@@H](C)C[C@@H]2C(=O)O)C1` (some centres not stated), inactive: -0.757%; under `CC1=C(C(N)=O)C(c2ccccc2F)n2nc(-c3ccc(Cl)cc3)nc2N1` (configuration not stated), inactive: 6.58%.
Under `COC(=O)c1cc(S(=O)(=O)N2CCN(c3cc(Cl)ccc3C)CC2)c[nH]1` stands inactive: -5.06%.
In the case of `O=S(=O)(NCC(c1ccco1)N1CCOCC1)c1ccc(F)cc1` (configuration not stated) it was inactive: -3.09%; in that of `Cc1cc(C)c2oc(C(=O)Nc3c(C(=O)c4ccccc4)oc4ccccc34)cc(=O)c2c1`, inactive: 15.4%; in that of `COc1ccccc1CNc1ncnc2c1c(-c1ccccc1)cn2-c1ccc(Br)cc1`, inactive: -23.8%.
Regarding `Cc1ccc(C(=O)NCCC(C)C)cc1NC(=O)c1nsc2ccccc12`, the “activity change, negative = inhibition” value was inactive: -16.7%.
Under `COc1cc2c(=O)c(C(=O)c3ccc(F)cc3)cn(Cc3cccc(F)c3)c2cc1OC` stands inactive: -7.01%; under `CCN(CC)c1ccc(NC(=O)Cn2c3ncccc3c(=O)n2-c2ccccc2)c(C)c1`, inactive: -6.41%.
Turning to `Cc1ccccc1CNC(=O)C(=O)NCC(c1ccc2c(c1)OCO2)N1CCOCC1` (configuration not stated), the “activity change, negative = inhibition” value was inactive: -14.5%.
Under `CN(CCCNC(=O)Cn1ncc2c([nH]c3ccccc32)c1=O)Cc1ccccc1` stands inactive: 0.0992%; under `Cc1ccc2c(c1)-c1c(cnn1CC(=O)N1CCN(c3cc(C)ccc3C)CC1)CO2`, inactive: -17.6%.
Under `Cc1ccccc1S(=O)(=O)Cc1ccc(C(=O)NCCc2ccccc2)o1` stands inactive: 13.2%; under `CC1CCN(c2csc3ccc(F)cc3c2=O)CC1`, inactive: 18.3%.
In the case of `O=C(NCc1ccc(Cl)cc1)c1ccc(CNS(=O)(=O)c2ccc(F)cc2)cc1` it was inactive: -2.55%; in that of `COCCc1nn2c(=O)cc(COC(=O)c3ccco3)nc2s1`, inactive: -4.91%.
With `CCC(Sc1nc2cc(OC)c(OC)cc2c(=O)n1Cc1ccc(OC)cc1)C(=O)NCCOC` (configuration not stated), the “activity change, negative = inhibition” value was inactive: -7.65%.
Under `CC(=O)c1ccc(NC(=O)c2cc(S(=O)(=O)N3CCOCC3)ccc2C)cc1` stands inactive: -34.7%.
`CC(C)(C)c1ccc(C(=O)Nc2ccc(OCc3cc(=O)n4ccsc4n3)cc2)cc1`: the “activity change, negative = inhibition” value is inactive: -9.2%.
In the case of `COc1ccc(CCNC(=O)c2ccc(Cn3c(=O)c4ccccc4n(Cc4ccc(F)cc4Cl)c3=O)cc2)cc1OC` it was inactive: 23%.
